Measurements as given in the supplement of paper PMC8728848.
The list shows a part of the results.

Legend:
Experiment in all cases: glycan array binding signal (z-score within array); higher = stronger binding
Conditions in all cases: glycan notation: IUPAC condensed, linker removed
Gal(b1-2)Gal = biological target: Gal(b1-2)Gal
In short: (§1)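 Columns mapping to the same glycan were averaged after glycan names were converted to IUPAC-condensed notation. The data come from 3228 arrays in the Consortium for Functional Glycomics database, limited to those with an available protein sequence. Binding is reported as a within-array Z-score averaged across arrays of one protein sequence and across linkers.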

Gal(b1-3)Gal = biological target: Gal(b1-3)Gal
In short: as §1

Gal(b1-3)Gal(b1-4)GlcNAc = biological target: Gal(b1-3)Gal(b1-4)GlcNAc
In short: as §1

Gal(b1-3)GalNAc = biological target: Gal(b1-3)GalNAc
In short: as §1

[1] = biological target: Gal(b1-3)GalNAc(a1-3)[Fuc(a1-2)]Gal(b1-4)Glc
In short: as §1

[2] = biological target: Gal(b1-3)GalNAc(a1-3)[Fuc(a1-2)]Gal(b1-4)GlcNAc
In short: as §1

Gal(b1-3)GalNAc(b1-3)Gal = biological target: Gal(b1-3)GalNAc(b1-3)Gal
In short: as §1

[3] = biological target: Gal(b1-3)GalNAc(b1-3)Gal(a1-4)Gal(b1-4)Glc
In short: as §1

[4] = biological target: Gal(b1-3)GalNAc(b1-4)Gal(b1-4)Glc
In short: as §1

[5] = biological target: Gal(b1-3)GalNAc(b1-4)[Neu5Ac(a2-3)]Gal(b1-4)Glc
In short: as §1

Gal(b1-3)GlcNAc = biological target: Gal(b1-3)GlcNAc
In short: as §1

[6] = biological target: Gal(b1-3)GlcNAc(a1-3)Gal(b1-4)GlcNAc
In short: as §1

[7] = biological target: Gal(b1-3)GlcNAc(a1-6)Gal(b1-4)GlcNAc
In short: as §1

Gal(b1-3)GlcNAc(b1-2)Man = biological target: Gal(b1-3)GlcNAc(b1-2)Man
In short: as §1

[8] = biological target: Gal(b1-3)GlcNAc(b1-2)Man(a1-3)[Gal(b1-3)GlcNAc(b1-2)Man(a1-6)]Man(b1-4)GlcNAc(b1-4)GlcNAc
In short: as §1

[9] = biological target: Gal(b1-3)GlcNAc(b1-2)Man(a1-3)[Gal(b1-3)GlcNAc(b1-2)Man(a1-6)]Man(b1-4)GlcNAc(b1-4)[Fuc(a1-6)]GlcNAc
In short: as §1

[10] = biological target: Gal(b1-3)GlcNAc(b1-2)Man(a1-3)[GlcNAc(b1-4)][Gal(b1-3)GlcNAc(b1-2)Man(a1-6)]Man(b1-4)GlcNAc(b1-4)GlcNAc
In short: as §1

[11] = biological target: Gal(b1-3)GlcNAc(b1-2)[Gal(b1-3)GlcNAc(b1-6)]Man(a1-6)[Gal(b1-3)GlcNAc(b1-2)Man(a1-3)]Man(b1-4)GlcNAc(b1-4)GlcNAc
In short: as §1

[12] = biological target: Gal(b1-3)GlcNAc(b1-3)Gal(b1-3)GlcNAc
In short: as §1

[13] = biological target: Gal(b1-3)GlcNAc(b1-3)Gal(b1-4)Glc
In short: as §1

[14] = biological target: Gal(b1-3)GlcNAc(b1-3)Gal(b1-4)GlcNAc
In short: as §1

[15] = biological target: Gal(b1-3)GlcNAc(b1-3)Gal(b1-4)GlcNAc(b1-2)Man(a1-3)[Gal(b1-3)GlcNAc(b1-3)Gal(b1-4)GlcNAc(b1-2)Man(a1-6)]Man(b1-4)GlcNAc(b1-4)GlcNAc
In short: as §1

[16] = biological target: Gal(b1-3)GlcNAc(b1-3)Gal(b1-4)GlcNAc(b1-2)[Gal(b1-3)GlcNAc(b1-3)Gal(b1-4)GlcNAc(b1-6)]Man(a1-6)[Gal(b1-3)GlcNAc(b1-3)Gal(b1-4)GlcNAc(b1-2)Man(a1-3)]Man(b1-4)GlcNAc(b1-4)[Fuc(a1-6)]GlcNAc
In short: as §1

[17] = biological target: Gal(b1-3)GlcNAc(b1-3)Gal(b1-4)GlcNAc(b1-3)Gal(b1-4)GlcNAc(b1-2)[Gal(b1-3)GlcNAc(b1-3)Gal(b1-4)GlcNAc(b1-3)Gal(b1-4)GlcNAc(b1-6)]Man(a1-6)[Gal(b1-3)GlcNAc(b1-3)Gal(b1-4)GlcNAc(b1-3)Gal(b1-4)GlcNAc(b1-2)Man(a1-3)]Man(b1-4)GlcNAc(b1-4)[Fuc(a1-6)]GlcNAc
In short: as §1

[18] = biological target: Gal(b1-3)GlcNAc(b1-3)Gal(b1-4)GlcNAc(b1-6)[Gal(b1-3)GlcNAc(b1-3)]Gal(b1-4)Glc
In short: as §1

[19] = biological target: Gal(b1-3)GlcNAc(b1-3)Gal(b1-4)[Fuc(a1-3)]GlcNAc
In short: as §1

[20] = biological target: Gal(b1-3)GlcNAc(b1-3)Gal(b1-4)[Fuc(a1-3)]GlcNAc(b1-6)[Gal(b1-3)GlcNAc(b1-3)]Gal(b1-4)Glc
In short: as §1

[21] = biological target: Gal(b1-3)GlcNAc(b1-3)GalNAc
In short: as §1

[22] = biological target: Gal(b1-3)GlcNAc(b1-6)Gal(b1-4)GlcNAc
In short: as §1

[23] = biological target: Gal(b1-3)GlcNAc(b1-6)GalNAc
In short: as §1

[24] = biological target: Gal(b1-3)GlcNAc(b1-6)[Gal(b1-3)]GalNAc
In short: as §1

Gal(b1-3)GlcNAc6S = biological target: Gal(b1-3)GlcNAc6S
In short: as §1

[25] = biological target: Gal(b1-3)[Fuc(a1-4)]GlcNAc
In short: as §1

[26] = biological target: Gal(b1-3)[Fuc(a1-4)]GlcNAc(b1-2)Man
In short: as §1

[27] = biological target: Gal(b1-3)[Fuc(a1-4)]GlcNAc(b1-2)Man(a1-3)[Gal(b1-3)[Fuc(a1-4)]GlcNAc(b1-2)Man(a1-6)]Man(b1-4)GlcNAc(b1-4)[Fuc(a1-6)]GlcNAc
In short: as §1

[28] = biological target: Gal(b1-3)[Fuc(a1-4)]GlcNAc(b1-3)Gal(b1-3)[Fuc(a1-4)]GlcNAc
In short: as §1

[29] = biological target: Gal(b1-3)[Fuc(a1-4)]GlcNAc(b1-3)Gal(b1-4)[Fuc(a1-3)]GlcNAc
In short: as §1

[30] = biological target: Gal(b1-3)[Fuc(a1-4)]GlcNAc(b1-6)GalNAc
In short: as §1

[31] = biological target: Gal(b1-3)[GlcNAc(b1-6)]GalNAc
In short: as §1

[32] = biological target: Gal(b1-3)[Neu5Ac(a2-6)]GalNAc
In short: as §1

[33] = biological target: Gal(b1-3)[Neu5Ac(a2-6)]GlcNAc(b1-4)Gal(b1-4)Glc
In short: as §1

[34] = biological target: Gal(b1-3)[Neu5Ac(b2-6)]GalNAc
In short: as §1

Gal(b1-4)Gal = biological target: Gal(b1-4)Gal
In short: as §1

[35] = biological target: Gal(b1-4)GalNAc(a1-3)[Fuc(a1-2)]Gal(b1-4)GlcNAc
In short: as §1

[36] = biological target: Gal(b1-4)GalNAc(b1-3)[Fuc(a1-2)]Gal(b1-4)GlcNAc
In short: as §1

B1: rCnSL-proA (Clitocybe nebularis) (protein)
chain: AAFFSLVVLLALLPFGIHASALPSTELTPRVNPNLPGPNDVFVGFRGTNNIVGAIYEKDGIKDTPLNNGADAEMGPGSYITDGLFTARIFASGSAGNNPGTTATVCKIYASGVQWRGAPKGYIPVAYFGNGPTAEQRRQTYLRTLGLPGTAIRFGNLNTNPGQGPTAPRQMVVPPGPLRSLLKASCFPAADTRLPQTLHYFEKRVDWNIITAADSQTWGH
glycan array binding signal (z-score) (Gal(b1-2)Gal): -0.257 | glycan array binding signal (z-score) (Gal(b1-3)Gal): -0.077 | glycan array binding signal (z-score) (Gal(b1-3)Gal(b1-4)GlcNAc): -0.238 | glycan array binding signal (z-score) (Gal(b1-3)GalNAc): -0.229 | glycan array binding signal (z-score) [1]: 0.02 | glycan array binding signal (z-score) [2]: -0.151 | glycan array binding signal (z-score) (Gal(b1-3)GalNAc(b1-3)Gal): -0.298 | glycan array binding signal (z-score) [3]: -0.17 | glycan array binding signal (z-score) [4]: -0.071 | glycan array binding signal (z-score) [5]: -0.118 | glycan array binding signal (z-score) (Gal(b1-3)GlcNAc): -0.316 | glycan array binding signal (z-score) [6]: -0.185 | glycan array binding signal (z-score) [7]: 0.176 | glycan array binding signal (z-score) (Gal(b1-3)GlcNAc(b1-2)Man): -0.057 | glycan array binding signal (z-score) [8]: -0.571 | glycan array binding signal (z-score) [9]: 0.494 | glycan array binding signal (z-score) [10]: 0.507 | glycan array binding signal (z-score) [11]: 1.1 | glycan array binding signal (z-score) [12]: -0.285 | glycan array binding signal (z-score) [13]: -0.329 | glycan array binding signal (z-score) [14]: 0.059 | glycan array binding signal (z-score) [15]: 1.71 | glycan array binding signal (z-score) [16]: -0.023 | glycan array binding signal (z-score) [17]: 1.44 | glycan array binding signal (z-score) [18]: 0.561 | glycan array binding signal (z-score) [19]: -0.065 | glycan array binding signal (z-score) [20]: 0.293 | glycan array binding signal (z-score) [21]: -0.738 | glycan array binding signal (z-score) [22]: 0.439 | glycan array binding signal (z-score) [23]: -0.648 | glycan array binding signal (z-score) [24]: -0.912 | glycan array binding signal (z-score) (Gal(b1-3)GlcNAc6S): -0.147 | glycan array binding signal (z-score) [25]: -0.077 | glycan array binding signal (z-score) [26]: -0.106 | glycan array binding signal (z-score) [27]: -0.292 | glycan array binding signal (z-score) [28]: -0.333 | glycan array binding signal (z-score) [29]: -0.471 | glycan array binding signal (z-score) [30]: -0.623 | glycan array binding signal (z-score) [31]: -0.423 | glycan array binding signal (z-score) [32]: 0.335 | glycan array binding signal (z-score) [33]: -0.459 | glycan array binding signal (z-score) [34]: -0.458 | glycan array binding signal (z-score) (Gal(b1-4)Gal): -0.621 | glycan array binding signal (z-score) [35]: -0.433 | glycan array binding signal (z-score) [36]: -0.746
